Source: article PMC7138851, “Quantitative assessment of the determinant structural differences between redox-active and inactive glutaredoxins” (Nature Communications, 2020)
Entries with a single value are a further part of the results.

What was measured:
[1] = substrate: N[C@@H](CCC(=O)N[C@@H](CS)C(=O)NCC(=O)O)C(=O)O; assay: purified protein, by the assay type; set-up: GSSCys oxidoreductase assay, GR-coupled NADPH consumption at 340 nm, apparent Km from Hanes plots; conditions: pH 8.0, 25.0 °C
Description: (§1) Steady-state kinetics of wild-type and mutant ScGrx7 and HsGrx5^C122S in the GSSCys and [compound left out] assays were determined spectrophotometrically by monitoring the consumption of NADPH at 340 nm and 25 °C using a thermostated Jasco V-650 UV/vis spectrophotometer[11],[19],[25]. Fresh stock solutions of NADPH, GSH, GR, and GSSCys or [compound left out] were prepared in assay buffer containing 0.1 M Tris/HCl, 1 mM EDTA, pH 8.0 before each experiment. Both assays were performed with 0.1 mM NADPH and 1 U/ml ScGR. The following final protein concentrations were used for Y110F/H/A (5–150 nM), D144A/K (10 nM), E147A/K (10 nM), R153A/E (25–50 nM), ScGrx7^WP (20 nM), ScGrx7^loop (up to 1.4 µM), ScGrx7^WP+loop (up 2.6 µM), HsGrx5^C122S (up to 15 µM), HsGrx5^RR (up to 12 µM), HsGrx5^loop (up to 1.6 µM), and HsGrx5^RR+loop (up to 4.0 µM). For the GSSCys assays, GSH was varied between 50 µM and 1.5 mM at fixed GSSCys concentrations (25, 50, 100, and 150 µM). NADPH, GSH, and GR were mixed in assay buffer before Grx was added and a baseline was recorded for 30 s. All GSSCys assays were started by the addition of GSSCys. The absorbance of a reference cuvette containing all components but no Grx was measured in parallel and subtracted from the obtained Grx activity. For the [compound left out] assays, GSH was varied between 100 µM and 2.0 mM at fixed concentrations of [compound left out] (0.18, 0.37, 0.55, and 0.74 mM). NADPH, GSH, and [compound left out] were preincubated in assay buffer for 2 min before GR was added and a baseline was recorded for 30 s. All [compound left out] assays were started by the addition of enzyme. Kinetic data were analyzed in Excel and SigmaPlot 13 by nonlinear and linear regression according to Michaelis–Menten, Lineweaver–Burk, Eadie–Hofstee, and Hanes theory[11],[19],[25]. 29 Supplementary Figure 15 Supplementary Figure 15 | GSSCys assay steady-state kinetics of HsGrx5loop and HsGrx5RR+loop . (a) Hanes plots of the GSH-dependent reaction velocity at different initial concentrations of GSSCys. […] (c) Lineweaver-Burk plots of the GSSCys-dependent reaction velocity at different initial concentrations of GSH. Data points and error bars are the mean ± s.d. from three independent protein purification experiments and were plotted and fitted in SigmaPlot 13 according to Hanes, Lineweaver-Burk and Eadie-Hofstee theory. Data points in brackets were omitted from the regression analysis when the kcat app or Km app values from all four plots varied by more than 10% and converged after removal of the outlier. True kinetic constants were estimated from secondary plots in Supplementary Fig. 16 and are listed in Supplementary Table 7. Selected apparent kinetic constants from linear regression analyses of Hanes plots are listed in Supplementary Table 9. The activities of HsGrx5 and HsGrx5RR were similar to the NADPH consumption of negative controls without enzyme and could not be analyzed.

[2] = substrate: N[C@@H](CCC(=O)N[C@@H](CSSC[C@H](N)C(=O)O)C(=O)NCC(=O)O)C(=O)O; assay: purified protein, by the assay type; set-up: GSSCys oxidoreductase assay, GR-coupled NADPH consumption at 340 nm, apparent Km from Hanes plots; conditions: pH 8.0, 25.0 °C
Description: as §1

B1: HsGrx5 (Homo sapiens; C122S/DEL60-64/P65T/Q66G) (protein)
chain: AGSGAGGGGSAEQLDALVKKDKVVVFLKTGCGFSNAVVQILRLHGVRDYAAYNVLDDPELRQGIKDYSNWPTIPQVYLNGEFVGGSDILLQMHQNGDLVEELKKLGIHSALLDEKKDQDSK
notes: E. coli XL1-Blue, pQE30; N-terminal MRGS(H)6 tag; C122S in all constructs
Km ([1]; 50 µM GSSCys): 17.7 ± 8.9 µM | Km ([1]; 100 µM GSSCys): 47.6 ± 30 µM | Km ([1]; 150 µM GSSCys): 59.9 ± 15 µM | Km ([1]; lowest tested GSSCys concentration): 10.2 ± 5.3 µM | Km ([2]; 50 µM GSH): 156 ± 19 µM | kcat ([2]; 50 µM GSH): 0.24 s⁻¹ | Km ([2]; 200 µM GSH): 563 ± 58 µM | kcat ([2]; 200 µM GSH): 0.88 ± 0.06 s⁻¹ | Km ([2]; 500 µM GSH): 2703 ± 119 µM | kcat ([2]; 500 µM GSH): 4.33 ± 0.21 s⁻¹
